The supplement of paper PMC4466236
Whole data set: some 33,000 sequences, median “E-score (dimensionless, -0.5 to 0.5)” near -0.058, cut for the highest 2% near 0.35. The list shows a part of the results.

System: MvaT
Assay: PBM 8-mer E-score (mean of HK and ME arrays) (E-score (dimensionless, -0.5 to 0.5)); higher = stronger relative binding preference; most listed sequences are background and not binding sites
In short: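 Full-length P. aeruginosa MvaT carrying an N-terminal glutathione S-transferase tag was tested by protein binding microarray following a previously described protocol. Two universal double-stranded 60-mer arrays, ME and HK, were used, each with a constant 25-mer primer region and a variable 35-mer region covering all 8-mers. The rank-based E-score is the mean of the two arrays, parsed with a custom script. Its range runs from -0.5 to 0.5 for each 8-mer.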

| Sequence | PBM 8-mer E-score |
| --- | --- |
| AGACCTAC | -0.146 |
| ACACCGTG | -0.267 |
| AATGGCGA | 0.0392 |
| CCGGTTGC | -0.249 |
| CACACATG | -0.158 |
| GAGAGCGA | -0.266 |
| CCTTTGCC | -0.177 |
| AATTCGTA | 0.267 |
| GTGCTTTA | 0.0304 |
| CGTTGCAG | -0.128 |
| ACATTAGA | 0.175 |
| CCTAATAG | 0.0342 |
| GGTGTGAA | -0.115 |
| CAAGTGTC | 0.0139 |
| AACCAGAG | -0.0261 |
| CCAATGTA | 0.0446 |
| GCACGACC | -0.211 |
| GTAAAGTA | 0.311 |
| CCTTAAGA | 0.0147 |
| GAACAGAA | 0.0885 |
| ATTCCCTC | -0.0531 |
| AAGCGGGT | 0.0658 |
| ACCTCCTA | -0.261 |
| CAGAATCG | -0.0961 |
| ATATAGAG | 0.351 |

| Sequence | PBM 8-mer E-score |
| --- | --- |
| GACGGCAC | -0.151 |
| AGTTGGAT | 0.182 |
| CGACATAC | -0.141 |
| GCAGGATA | -0.0415 |
| AGTTACAC | 0.156 |
| ACCTTATA | 0.266 |
| CCAAACGG | -0.0709 |
| ACCTAGAA | 0.0098 |
| TATCATGA | 0.162 |
| GACCCGAC | -0.209 |
| ATTTATAC | 0.383 |
| AATTGGCC | -0.0386 |
| GCCTTCCA | -0.248 |
| GGGGAGAA | -0.0599 |
| CGCCCCCC | -0.306 |
| CGCAGGTA | -0.071 |
| AGCCGGAC | -0.198 |
| CGTTACTC | -0.0177 |
| CCGGTTAA | 0.0615 |
| ACCTACTG | -0.0851 |
| CTGCGAGA | -0.109 |
| GATCACCC | -0.211 |
| ACTGCTGG | -0.0671 |
| CGTGCACC | -0.217 |
| TCCTGTAA | -0.0302 |

| Sequence | PBM 8-mer E-score |
| --- | --- |
| ATGTATTC | 0.152 |
| ACACCTGC | -0.192 |
| ACAATTCA | 0.202 |
| CTCGGCCA | -0.275 |
| CTACCCAC | -0.0554 |
| ACGAGTAA | 0.123 |
| GCTCAGTA | -0.0967 |
| ATACAGCG | 0.00347 |
| CTTATAAC | 0.352 |
| AAAGTTTG | 0.284 |
| ACGTATCG | -0.113 |
| AGCGAGAA | -0.14 |
| TCAACAGA | -0.0319 |
| CGCAGTGC | -0.113 |
| CAGAAGCA | -0.067 |
| ACGGCTCA | -0.195 |
| ATACTAAC | 0.281 |
| ACGTGCTC | -0.148 |
| CACGTAGG | -0.198 |
| CCCGGGCG | -0.302 |
| ACGTACTG | -0.0685 |
| ACCGTGCC | -0.195 |
| CTTATTAC | 0.367 |
| CGGAATTC | -0.0907 |
| GCCGGCGA | -0.262 |

| Sequence | PBM 8-mer E-score |
| --- | --- |
| CGGGAAAA | 0.0519 |
| CCTATAAA | 0.211 |
| AGAGATAT | 0.285 |
| GAGTGCAC | -0.191 |
| AATTTTCC | 0.233 |
| AGTGAAGA | -0.0319 |
| AGCGGAAG | -0.121 |
| GACAACAA | 0.0775 |
| CTGTTGTA | 0.199 |
| AAAGAACA | 0.103 |
| TAACTTCA | 0.282 |
| CAGATTAG | 0.108 |
| AACATTTA | 0.334 |
| AGCCATGA | -0.0893 |
| GGGAGCCC | -0.305 |
| CAATTAAC | 0.234 |
| CCCGCCGG | -0.223 |
| ACGTAGTC | -0.289 |
| GAGGCAGA | -0.244 |
| CCGCGCAC | -0.102 |
| AATCAAAA | 0.186 |
| AAATTAGT | 0.281 |
| AAAAGCCG | 0.0019 |
| ACGCAGCC | -0.21 |
| CCAGTGCC | -0.229 |

| Sequence | PBM 8-mer E-score |
| --- | --- |
| GACCGGCC | -0.208 |
| AGCCGTAT | -0.0393 |
| ATTTTGCA | 0.167 |
| CGCTCACG | -0.262 |
| AAGTAGAT | 0.044 |
| ACGATGCG | -0.235 |
| CGTCTACC | -0.0847 |
| GCGGCTAC | -0.204 |
| AACGTACG | 0.0774 |
| ACTGCCTG | -0.0185 |
| ACGTGAAT | 0.0978 |
| GAACGGTA | -0.0707 |
| AGGTGGAC | -0.19 |
| GTTCCGCA | -0.111 |
| GGTCCAGA | -0.209 |
| CGTGAATC | -0.145 |
| CCAGTACA | 0.0309 |
| ATCTTGAC | 0.0211 |
| AGGGGTTC | -0.193 |
| AATTGGCA | -0.0711 |
| CGCTAGTA | -0.0941 |
| CTGGTGGC | -0.196 |
| GATGTCGC | -0.145 |
| GATTGGGA | -0.246 |
| CTCATACC | -0.0218 |

| Sequence | PBM 8-mer E-score |
| --- | --- |
| AGTCGCAT | -0.137 |
| ATTATGAA | 0.269 |
| GCTCAAAC | 0.0144 |
| GCGAGCAC | -0.249 |
| AATCTCAG | -0.101 |
| GCTTCACA | -0.0468 |
| ACTTCTTG | 0.177 |
| GTGTTCGA | 0.0764 |
| CGTTTTCA | 0.0897 |
| CCGCCCCG | -0.281 |
| ATAAAATA | 0.427 |
| AAACGTCC | -0.189 |
| AGGCCACA | -0.28 |
| ATCCCTCG | -0.099 |
| AGGTAATA | 0.234 |
| GTGGCCCA | -0.122 |
| AAAGCCTT | 0.0794 |
| CTGCATAA | 0.0595 |
| ATTCTTCG | 0.155 |
| GAGGCCAC | -0.194 |
| CGTGATAA | 0.21 |
| AGTTCACC | 0.0614 |
| GTTTGGTA | 0.106 |
| CCTCACAG | -0.0896 |
| CAATGATA | 0.15 |

| Sequence | PBM 8-mer E-score |
| --- | --- |
| CAGCGCAG | -0.295 |
| CACGCTGA | -0.0407 |
| CAAGACCC | -0.295 |
| AAGACTCG | -0.0174 |
| CCAGTGAA | -0.0909 |
| GACGCCTA | -0.199 |
| CCGCGGCG | -0.0831 |
| ACTTCATC | 0.0586 |
| GAAGGTAC | -0.141 |
| AGGTCGTG | -0.0505 |
| TCCCCAAA | -0.0366 |
| CGATTGTC | -0.0957 |
| CAAAAGCC | -0.051 |
| CTGATCGA | -0.301 |
| AATACAGC | 0.247 |
| CTCTTATA | 0.289 |
| AGATGCAG | 0.05 |
| AATTATCT | 0.296 |
| ATACTTTG | 0.236 |
| GGTCGTGA | -0.104 |
| GAGAACCC | -0.203 |
| TCAATGGA | 0.0508 |
